From the RNAGym collection of RNA variant scans (doi:10.1093/nar/gkz1192)
The source gives no read counts; variants with many changes may rest on few reads.

B1: CPEB3 Ribozyme (parent)
chain: UAACAGGGGGCCACAGCAGAAGCGUUCACGUCGCAGCCCCUGUCAGAUUCUGGUGAAUCUGCGAAUUCUGCUGUAUAUCUC

Variants of: B1
Assay: self-cleavage, relative activity (ratio to wild type); higher = more cleavage; in vitro, sequencing
In short: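 Barcoded CPEB3 ribozyme mutants, produced by rounds of error-prone PCR, self-cleaved while being transcribed with T7 RNA polymerase for 5 hours at 37°C and during a subsequent 15 min DNase I step before EDTA was added. Sequencing of template-switched cDNA on Illumina gave cleaved and total reads, and DNA sequencing assigned barcodes to variants. Each variant's relative activity is its cleaved/total read fraction divided by the unmutated ribozyme's fraction, averaged across three batches. A variant needed a minimum of 5 reads.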

Row | Variant | self-cleavage
1 | UAACCGGGGGCCACAGCAGAAGCGUUCACGUCGCAGCCCCUGUCAGAUUCUGGUGAAUCAGCGAAUUCAGCUGUAUAUCAC | 0.37
2 | UAACCGGGGGCCACAGCAGAAGCGCUCACGUCGCAGCCCCUGUCAGAUUCUGGCGAAUCUGCGAAUUCUGCUGUAUAUCUC | 0.29
3 | UAACGGGGGGCCCCAGCAGAAGCGUUCACGUCGCAGCCCCUGUCAGAUUCUGGUGAAUCUGCGAAUUCUGCUGUAUCUCUC | 0.86
4 | UAACCGGGGGCCACAGCAGAAGCGUUCACGUCACAGCCCCUGUCAGUUUCUGGUGAUUCUGCGAAUUCUGCUACAUAUCUC | 0.08
5 | UAACCGGUGGCCACAGCAGAAGCGUUCACGUCGCAGCCCCUGCCAGAUUCUGGUGAAUCUGCGAAUCCUGCUGUAUAUCUC | 0.12
6 | UAACCGGGGGCCACAGCAGAAGCGUUCACGUCGCAGCCCCUGUCAGACUCAGGUGAGUCCGCGAAUUCUGCUGUAUAUCCC | 0.32
7 | UAACCGGGGGACACUGCAGAAGCGUUCACGUCGCAGCCCCUGUCCGAUUCUGGUGAAUCCGCGAAUUCUGCUGUAUAUCUC | 0.22
8 | UAACGGGGGGCCCCAGCAGGAGCGUUCACGUCGCAGCCCCUGUCAGGUUCUGGUGAAUCUGCGAAUUCUGCCGUAUAUCUC | 0.4
9 | UAACCAGGGGCCACAGCAGAAGCGUUCGCGUCGCAGCCCCCGUCAGAUUCUGGUGAAUCUGCGGAUUCAGCUGUACAUCUC | 0.05
10 | UAACCGGGAGCCACAGCAGGAGCGUUCACGUCGCAGCCCCUGACUGAUUCUGGUGAAUCUGCGAAUUCUGCUGUAUAUCUC | 0.08
11 | UAACCGGAGGCCACAGCAGAAGCGUUCACGUCGCAGCCCCUGUCAGAUUCCGGUGAAUCUGCGAAUUCUGCUGUAUAUCUC | 0.47
12 | UAACCGGGGUCCACAGCAGAAGCGUUCACGUCGCAGCCCCUGUCAUAUUCUGGUGAAUCUGCGAAUUCUGCUGUAUAUCUC | 0.27
13 | UAACCGGGGGCAACAGCGGAAGCGUUCACGUCGCGGCCCCUGUCAGAUUCUGGUGAAUCUGCGAAAUCUGCUGUAUAUCUC | 0.18
14 | UAACCGGGGGCCACAGCAGAAGCGUGCACGUCGCGGCCCCUGUCAGAUUCUGGUGAAUCUGCGAAUUCUGCUGUAUAUCCC | 0.65
15 | UAACCGGGGGCCACAGCAGAAGCGUUCACGUCGCAGCCCCUGUCGGAUUCUGGUGAAUCUGCGAGUUCUGCUGUAUAUCUC | 0.5
16 | UAACCGGGGGCCACAGCAGAAGCGUUCACGUCGCAGCCCCUGUCAGAUUCUGGUGAAUCUGCGAAUCCUGCCGUACGUCUC | 0.17
17 | UAACCGGGGGCCACAGCAGAAGCGUUCUCGUCGCAGCCCCUGUCAGAUUCUGGUGAAUCUGCGAAUUCUGCCGUAUAUCUC | 1.08

Row | Variant | self-cleavage
18 | UAACCGGGGGCCACAGCAGAAGCGAACACGUCGCAGCCCCUGUCAGAAUCUGGUGAAUCUGCGAGUUCUGCUGUAUAUCUC | 0.07
19 | UAACCGGGGGCCACAGCAUAAGCGUUCACGUCGCAGCCCCUGUCAGAUUCUGGUGUAUCUGCGUAUUCAGCUGUAUGUUUC | 0.07
20 | UAACCGGGGGCCACAGCAGAAGCGUUCACGCCGCAGCCCCUGUCAGAUUCUGGAGAAUCUGCGAAUUCUGCUGCAUAUCUC | 1.15
21 | UAACCGGGGGCCACAGCAGAAGCGUUCACGUCGCAUCCCCUGUCGGGUUCUGGUGAAUCUGCGAAUUCUGCUGUAUAUCUC | 0.22
22 | UAACCGGGGGCCACAGCAGAAGCGUUCGCGUCGCAGCCCUUGUCAGGUUCUGGUGAAUCCGCGAAUUCUGCCGUAUAUCUC | 0.04
23 | UAACCGGGGGCCACAGCAGAAGCGUCCACGUCGCAGCCCCAGUCAGAUCCUGGUGAAUCUGCGAUUUCUGCUGUAUAUCUC | 0.09
24 | UAACCGGGGGCCACAGCAGAGGCGUUCACGCCGCAGCCUCUGCCAGAUUCUGGUGAAUCUGCGAGUUCUGCUGUAUACCUC | 0.04
25 | UAACCGGGGGCCACAGCAGAGGCGUUCACGUCGCAGCCCCUGUCGGAUUCUGGAGAAUCCGCGAAUUCUGCUGCAUAUCUC | 0.98
26 | UAACCGGGGGCCACAGCAGAAGCGUUCACGUCGCAGCCCCUGUCAGAUUCUGGCGAAUCAGCGAAUUCUGCUGUAUAUCAC | 0.35
27 | UAACCGGGGGCCACAGCAGAAGCGUUCACGUCGCAGCCCCUGUCAGAUACAGGUGAAUCUGCGAAUUCAGCUGUAUAUCUC | 0.23
28 | UAACCGGGGGCAACAGCAGAAGCGAUCACGUCGCAGCCCCUGUCAGAUUCAGGUGAAUCUGCGAAUUCGGCCGUAUAUCUC | 0.04
29 | UAACCGGGGGCCACAGCAGAAGCGUUCGCGUCGCAGCCCCUGUCAGAUUCUGGUGAAUCUGCGAAUUCUGCCGUAUAUCUC | 0.27
30 | UAACGGGGGGCCCCCGCAGAAGCGUUCACGUCGCAGCCCCUGUCAGAUCCUGGUGAAUCUGCGAAUUCUGCAGUAUAUCUC | 0.22
31 | UAACGGGGGGCCCCAGCGGAAGCGUUCACGCCGCAGCCCCUGUCAGAUUCUGGUGAAUCUGCGAAUUCUGCUGUAUAUCUC | 0.06
32 | UAACCGGGGGCCACAGCAGAAGCGUUCACGUCGCAACCCCUGCCAGAUUCUGGUCAGUCUGCGAAUUCUGCUGUAUAUCUC | 0.11
33 | UAACCGGGGGCCACAGCAGAAGCGUUCCCGUCGCAGCCCCUGCCAGAUUCUGGUGAAUCUGCGAAUUCUGCUGUAUAUCUC | 0.43
34 | UAACCGGGUGCCACAGCAGAAGCGUUCACGUCGCAGCCCCUGUCAGAUUCUGGUGUAUCUGCGAAUUCUGCUGUAUAUCUC | 0.29
